{"source": "PubChem BioAssay AID463173", "about": "(ICCB-Longwood Screening Facility, Harvard Medical School, 2010)", "note": "The campaign covered roughly 52,000 compounds. About 1,700 (3.3%) were called active. No stated cut-off is given here; in the data, active means survival mostly below about 52% (no sharp cut-off); inactive means mostly above about 56%. The list shows a part of the results."}
{"test_system": "Wild type", "assay": "growth inhibition of S. aureus wild type versus tarO mutant, primary screen, teichoic acid synthesis inhibitors, RN4220, OD600 (AID 463173)", "conditions": "S. aureus RN4220 wild type/DeltatarO growth, OD600, 18 h, active compounds read low, screened at 18.75 µg/mL (by protocol)"}
{"smiles": "Cc1ccccc1-c1nc2scc(CCNC(=O)C(=O)Nc3ccc(F)cc3F)n2n1", "survival": "active: -4%"}
{"smiles": "O=C(CSc1nc2c([nH]c3ccccc32)c(=O)n1-c1ccccc1)c1ccc(Cl)cc1", "survival": "inactive: 76%"}
{"smiles": "C=Cc1ccc(Cn2c(C(=O)O)c(CNCCc3ccccc3)c3ccc(C)cc32)cc1", "survival": "inactive: 69%"}
{"smiles": "COc1cc(NS(=O)(=O)c2ccc3[nH]c4c(c3c2)CCCC4)cc(OC)c1OC", "survival": "inactive: 129%"}
{"smiles": "CCCn1c(CCC(=O)Nc2cccc(C)c2C)nc2cccnc21", "survival": "inactive: 123%"}
{"smiles": "Nc1c(C(=O)NCCc2ccccc2)nnn1CC(=O)Nc1ccc(Cl)cc1", "survival": "inactive: 75%"}
{"smiles": "Cc1ccccc1OCCCCn1c(C2CC(=O)N(c3ccccc3Cl)C2)nc2ccccc21", "note": "(stereo unspecified)", "survival": "inactive: 59%"}
{"smiles": "Cc1ccc(Nc2c(-c3ccc(N4CCOCC4)cc3)nc3c(C)cccn23)cc1", "survival": "inactive: 83%"}
{"smiles": "CCN(CC)/C(=N/OCc1ccc(Cl)cc1Cl)c1nonc1N", "survival": "inactive: 100%"}
{"smiles": "CCOC(=O)C1CCCN(c2c(C(=O)c3ccc(C)cc3)cnc3ccc(OCC)cc23)C1", "note": "(stereo unspecified)", "survival": "active: 2%"}
{"smiles": "COc1ccc(CC(=O)Nc2ccc3nc(Nc4cccc(Cl)c4)cc(C)c3c2)cc1", "survival": "inactive: 88%"}
{"smiles": "CC1(c2ccc(Cl)cc2Cl)OCC(Cn2cncn2)O1", "note": "(stereo unspecified)", "survival": "inactive: 114%"}
{"smiles": "COCCn1c(SCC(=O)Nc2cccc(C)c2C)nc2c(oc3ccccc32)c1=O", "survival": "inactive: 123%"}
{"smiles": "Cc1cc(-c2ccc(S(=O)(=O)Nc3cc(Cl)ccc3C)s2)on1", "survival": "inactive: 134%"}
{"smiles": "COc1ccc(CCNC(=O)c2cc3c(-c4ccc(OC)c(OC)c4)nn(C)c3s2)cc1OC", "survival": "inactive: 103%"}
{"smiles": "Cc1oc2ncn(C)c(=O)c2c1C(=O)N(Cc1ccccc1)C(C)C", "survival": "inactive: 99%"}
{"smiles": "Cc1ccc(Cl)cc1N1CCN(C(=O)c2ccc(CS(=O)(=O)c3ccc(Br)cc3)o2)CC1", "survival": "inactive: 84%"}
{"smiles": "Cc1cc(C)nc(SCCC(=O)N(C)C)n1", "survival": "inactive: 108%"}
{"smiles": "Cc1ccc(Cl)cc1N1CCN(C(=O)CCn2c(=O)c3cccn3c3cccnc32)CC1", "survival": "inactive: 37%"}
{"smiles": "CCOC(=O)c1c(C)[nH]c(CCC(=O)NCc2cccc(OC)c2)c1C", "survival": "inactive: 68%"}
{"smiles": "Cc1oc2ccc(O)c(CN3CCCCC3C)c2c1C(=O)Nc1ccccc1", "note": "(stereo unspecified)", "survival": "inactive: 88%"}
{"smiles": "O=C(CCc1ccccc1)N1CCc2c([nH]c3ccccc23)C1c1ccc(Cl)cc1", "note": "(stereo unspecified)", "survival": "inactive: 70%"}
{"smiles": "COc1ccc(C(CNC(=O)Cc2ccc(Cl)cc2)N2CCOCC2)cc1", "note": "(stereo unspecified)", "survival": "inactive: 78%"}
{"smiles": "O=C(CSc1nc(=O)n(CCN2CCOCC2)c2c1CCC2)Nc1cccc(Cl)c1", "survival": "inactive: 80%"}
{"smiles": "O=C(CC(c1cccs1)N1Cc2ccccc2C1=O)Nc1ccc(F)cc1F", "note": "(stereo unspecified)", "survival": "inactive: 65%"}
{"smiles": "Cc1cccc(CC(=O)NC2CC(=O)N(c3ccccc3)C2)c1", "note": "(stereo unspecified)", "survival": "active: -6%"}
{"smiles": "Cc1ccc(O)c(NC(=O)c2cc(-c3ccc(F)cc3)on2)c1", "survival": "inactive: 78%"}
{"smiles": "Cc1cc2c(cc3c(SCc4cccc(F)c4)nnc(C)n32)o1", "survival": "inactive: 102%"}
{"smiles": "Cc1cccc(C(=O)N2CCC(N3CCN(Cc4ccc(F)cc4)C(=O)C3=O)CC2)c1", "survival": "inactive: 110%"}
{"smiles": "Cc1ccc(C2=CC(c3ccc(Cl)cc3)n3nc(-c4ccc(C)cc4)nc3N2)cc1", "note": "(stereo unspecified)", "survival": "active: 1%"}
{"smiles": "CC(C)c1ccc(C2c3c(oc4ccc(Cl)cc4c3=O)C(=O)N2CCCN2CCOCC2)cc1", "note": "(stereo unspecified)", "survival": "inactive: 93%"}
{"smiles": "COc1cc(NC(=O)CN2C(=O)C(c3ccc(Cl)cc3)=NC23CCCCC3)cc(OC)c1", "survival": "inactive: 84%"}
{"smiles": "COc1ccc(NC(=O)CCc2nc3cccnc3n2-c2ccccc2)cc1Cl", "survival": "inactive: 83%"}
{"smiles": "Cc1ccccc1CSCCNC(=O)C1CCN(S(=O)(=O)Cc2ccccc2)CC1", "survival": "inactive: 109%"}
{"smiles": "COC(=O)c1ccc(Cl)cc1NC(=O)NC(C)c1c(-n2cccc2)sc(C)c1C", "note": "(stereo unspecified)", "survival": "active: 12%"}
{"smiles": "O=c1c2c3c(sc2n(Cc2ccccc2F)c(=O)n1-c1ccc(Cl)cc1)CCCC3", "survival": "inactive: 95%"}
{"smiles": "CNC(=O)C1CCC(Cn2c(=O)c3sccc3n(CC(=O)N3CCC(C)CC3)c2=O)CC1", "note": "(stereo unspecified)", "survival": "inactive: 49%"}
{"smiles": "Cc1ccc(-n2ncc(C(=O)NCc3ccco3)c2C2CCN(C(=O)OC(C)(C)C)CC2)cc1", "survival": "inactive: 70%"}
{"smiles": "Cc1cc(C)c(Cn2c(=O)n(CCCC(=O)NCc3ccc4c(c3)OCO4)c(=O)c3sccc32)c(C)c1", "survival": "inactive: 92%"}
{"smiles": "Cc1ccc2nc(Cl)c3cc(C(=O)N4CCCCC4)sc3c2c1", "survival": "active: -2%"}
{"smiles": "COC(=O)c1cc(S(=O)(=O)NCC2CCN(Cc3cccc(F)c3)CC2)cn1C", "survival": "inactive: 124%"}
{"smiles": "Cn1c(=O)c2c(-c3ccc(Cl)cc3)n(CCc3ccccc3)cc2n(C)c1=O", "survival": "inactive: 134%"}
{"smiles": "COc1ccc(N2CCN(Cc3nc4c(c(=O)[nH]c(=O)n4C)n3Cc3ccccc3F)CC2)cc1", "survival": "inactive: 130%"}
{"smiles": "COc1ccc(CCNC(=O)c2cc(=O)c3cc(C)c(C)cc3o2)cc1OC", "survival": "inactive: 85%"}
{"smiles": "COc1ccc(N(C(=O)Cn2nnc3ccccc32)C(C(=O)NCc2ccccc2)c2ccc(F)cc2)cc1", "note": "(stereo unspecified)", "survival": "inactive: 84%"}
{"smiles": "Cn1nnc2c(NCc3c(F)cccc3F)ncnc21", "survival": "inactive: 66%"}
{"smiles": "COc1ccc(CNC(=O)CN2CC(C)CC(C)C2)c(OC)c1", "note": "(stereo unspecified)", "survival": "inactive: 114%"}
{"smiles": "Cn1c(=O)c2c(nc(SCC(=O)Nc3ccc(F)c(F)c3)n2Cc2ccccc2F)n(C)c1=O", "survival": "inactive: 110%"}
{"smiles": "CCc1ccc(C(=O)CC2(O)C(=O)N(CCc3ccccc3)c3ccc(Cl)cc32)cc1", "note": "(stereo unspecified)", "survival": "active: 5%"}
{"smiles": "Cc1nnc(Sc2nc(Sc3nnc(C)s3)nc(N3CCCCC3)n2)s1", "survival": "inactive: 102%"}
{"smiles": "COc1ccc(CCNC(=O)C(=O)NCC(c2cccs2)S(=O)(=O)c2ccc(F)cc2)cc1", "note": "(stereo unspecified)", "survival": "inactive: 73%"}
{"smiles": "COc1ccc(NC(=O)CN2CCC(n3c(C)nc4cc(F)ccc43)CC2)c(OC)c1", "survival": "inactive: 114%"}
{"smiles": "O=C(NCCc1ccc(Cl)cc1)C1CCN(S(=O)(=O)c2ccc3[nH]ccc3c2)CC1", "survival": "inactive: 73%"}
{"smiles": "COc1ccc(-c2noc(CNC(=O)COc3cccc(C)c3C)n2)cc1", "survival": "inactive: 81%"}
{"smiles": "O=C(COCc1cc(-c2ccc3c(c2)OCO3)on1)Nc1cc(Cl)ccc1O", "survival": "inactive: 47%"}
{"smiles": "CC(C)c1ccc(Nc2c(-c3ccccn3)nc3ccccn23)cc1", "survival": "active: -21%"}
